Measurements: article PMC6949489
These are yes or no findings as the source states them, for the method shown. For some assays here: Binding seen in cells or lysates may run through a third protein. Some binding calls cover weakened binding; strength is not graded here. For some assays here: Where a sequence is shown, tags or fusion partners need not be part of it. Blank lines part the entries; values can stand above or below the binder they belong to.

Protein sequences, listed by entry. Tags and fused reporters are not part of them.
UniProt P29466: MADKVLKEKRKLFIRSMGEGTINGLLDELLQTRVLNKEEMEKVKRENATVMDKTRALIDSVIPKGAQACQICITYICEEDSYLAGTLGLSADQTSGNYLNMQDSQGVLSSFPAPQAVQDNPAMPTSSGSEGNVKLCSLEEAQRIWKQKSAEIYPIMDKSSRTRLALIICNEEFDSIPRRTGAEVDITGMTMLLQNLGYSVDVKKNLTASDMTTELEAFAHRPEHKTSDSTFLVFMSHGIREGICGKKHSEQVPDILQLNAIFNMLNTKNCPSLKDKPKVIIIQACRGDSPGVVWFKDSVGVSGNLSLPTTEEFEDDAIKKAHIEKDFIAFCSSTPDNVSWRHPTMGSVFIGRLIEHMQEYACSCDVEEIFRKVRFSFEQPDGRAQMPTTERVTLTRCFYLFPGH

Tests used:
[1] = biological target: T1, FLAG-tagged human caspase-4 (C258S) protease-deficient mutant (human) (UniProt P49662); test: in vitro complex formation assay (disulfide-linked high-molecular-weight complex on blot); E. coli purified GPx8 (pretreated with 1 or 5 mM H2O2, or 50 or 200 mM DTT) with FLAG-tagged caspase-4 (C258S) purified from 293T; both purified
T1 sequence: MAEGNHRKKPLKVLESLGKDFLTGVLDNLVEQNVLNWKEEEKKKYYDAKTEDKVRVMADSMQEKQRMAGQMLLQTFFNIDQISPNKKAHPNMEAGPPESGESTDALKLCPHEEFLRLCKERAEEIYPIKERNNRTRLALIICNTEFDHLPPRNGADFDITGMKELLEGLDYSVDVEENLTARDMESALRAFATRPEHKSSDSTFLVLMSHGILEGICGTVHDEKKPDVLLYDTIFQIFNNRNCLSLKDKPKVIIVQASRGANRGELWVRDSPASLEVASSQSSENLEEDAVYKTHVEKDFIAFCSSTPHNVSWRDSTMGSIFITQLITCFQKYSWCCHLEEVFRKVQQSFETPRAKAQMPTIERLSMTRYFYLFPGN

[2] = biological target: T1, FLAG-tagged human caspase-4 (C258S) protease-deficient mutant (human); test: co-IP; as a1, immunoprecipitated complex eluted and analysed under reducing conditions (+ DTT)
[3] = biological target: T1, FLAG-tagged human caspase-4 (C258S) protease-deficient mutant (human); test: co-IP; 293T cells co-transfected with FLAG-tagged caspase and GPx8 vectors; lysis in 20 mM Tris-Cl pH 8, 1% Triton X-100, 150 mM NaCl; immunoprecipitated with anti-FLAG Ab (also with anti-GPx8 Ab), 4°C 3 h; eluted with SDS buffer, disulfide-linked complexes seen under non-reducing conditions (- DTT); in one panel cells treated with H2O2 (200 μM)
[4] = biological target: FLAG-tagged human caspase-1 (human) (UniProt P29466); test: as above
[5] = biological target: T2, FLAG-tagged human caspase-4 C329S mutant (human) (UniProt P49662); test: as above
T2 sequence: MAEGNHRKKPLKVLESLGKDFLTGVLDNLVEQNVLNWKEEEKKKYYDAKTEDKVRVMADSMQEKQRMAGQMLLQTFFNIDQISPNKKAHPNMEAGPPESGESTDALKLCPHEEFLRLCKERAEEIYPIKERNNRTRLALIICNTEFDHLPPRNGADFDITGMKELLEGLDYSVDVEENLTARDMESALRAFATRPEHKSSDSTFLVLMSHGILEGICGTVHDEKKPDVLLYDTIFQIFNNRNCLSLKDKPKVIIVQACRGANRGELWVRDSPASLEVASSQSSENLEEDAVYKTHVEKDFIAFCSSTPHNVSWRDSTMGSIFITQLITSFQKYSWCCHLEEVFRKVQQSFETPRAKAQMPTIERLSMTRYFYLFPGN

[6] = biological target: T3, FLAG-tagged mouse caspase-11 (mouse) (UniProt P70343); test: as above
T3 sequence: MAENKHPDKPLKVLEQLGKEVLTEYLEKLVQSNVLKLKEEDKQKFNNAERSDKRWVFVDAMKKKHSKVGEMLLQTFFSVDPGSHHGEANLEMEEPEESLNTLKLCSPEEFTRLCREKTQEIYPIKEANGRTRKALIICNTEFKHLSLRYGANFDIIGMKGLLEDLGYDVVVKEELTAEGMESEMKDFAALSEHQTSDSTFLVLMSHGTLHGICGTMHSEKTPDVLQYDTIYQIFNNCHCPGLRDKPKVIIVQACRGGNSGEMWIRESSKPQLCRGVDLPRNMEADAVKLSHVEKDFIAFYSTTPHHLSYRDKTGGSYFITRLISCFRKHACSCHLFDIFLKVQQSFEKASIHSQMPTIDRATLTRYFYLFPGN

[7] = biological target: T4, FLAG-tagged human caspase-4, wild type (human) (UniProt P49662); test: as above
T4 sequence: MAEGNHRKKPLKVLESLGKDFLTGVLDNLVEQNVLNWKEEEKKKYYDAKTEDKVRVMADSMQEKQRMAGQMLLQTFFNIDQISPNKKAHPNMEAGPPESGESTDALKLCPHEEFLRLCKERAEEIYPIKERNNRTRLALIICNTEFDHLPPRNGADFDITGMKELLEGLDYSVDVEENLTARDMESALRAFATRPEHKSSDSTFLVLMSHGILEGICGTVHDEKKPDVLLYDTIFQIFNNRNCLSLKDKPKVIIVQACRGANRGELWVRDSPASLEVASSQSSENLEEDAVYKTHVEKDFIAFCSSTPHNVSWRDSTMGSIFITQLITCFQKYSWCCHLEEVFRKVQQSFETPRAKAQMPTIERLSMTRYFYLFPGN

[8] = biological target: T5, FLAG-tagged human caspase-4 C118S mutant (human) (UniProt P49662); test: as above
T5 sequence: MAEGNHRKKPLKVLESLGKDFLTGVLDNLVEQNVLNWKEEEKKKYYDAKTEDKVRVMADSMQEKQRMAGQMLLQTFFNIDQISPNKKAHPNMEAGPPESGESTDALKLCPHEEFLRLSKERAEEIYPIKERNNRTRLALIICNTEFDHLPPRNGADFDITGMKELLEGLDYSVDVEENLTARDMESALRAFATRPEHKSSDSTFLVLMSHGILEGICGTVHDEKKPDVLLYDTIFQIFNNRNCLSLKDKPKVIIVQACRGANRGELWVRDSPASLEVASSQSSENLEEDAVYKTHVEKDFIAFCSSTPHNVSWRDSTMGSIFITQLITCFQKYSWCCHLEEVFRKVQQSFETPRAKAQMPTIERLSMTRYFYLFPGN

[9] = biological target: T6, endogenous caspase-4 in THP-1 cells (human (endogenous in THP-1)) (UniProt P49662); test: proximity ligation; in situ PLA in THP-1 cells stably expressing GPx8-Myc, anti-Myc and anti-caspase-4 Abs; untreated or primed with LPS
T6 sequence: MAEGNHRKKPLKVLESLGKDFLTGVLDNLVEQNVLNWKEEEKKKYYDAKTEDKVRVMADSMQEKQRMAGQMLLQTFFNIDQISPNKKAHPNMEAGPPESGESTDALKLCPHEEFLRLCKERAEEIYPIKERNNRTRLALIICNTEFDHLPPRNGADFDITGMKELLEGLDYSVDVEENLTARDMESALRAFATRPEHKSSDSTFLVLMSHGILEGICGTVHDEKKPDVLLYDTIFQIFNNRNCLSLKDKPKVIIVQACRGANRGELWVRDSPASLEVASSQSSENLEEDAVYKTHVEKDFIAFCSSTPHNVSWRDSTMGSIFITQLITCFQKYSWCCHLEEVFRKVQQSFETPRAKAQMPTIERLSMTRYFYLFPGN

B2: recombinant GPx8 C2S2 mutant (C79S and C108S), N-terminally truncated (N' Δ1-43) (domain or fragment, UniProt Q8TED1 44-209)
chain: INSFYAFEVKDAKGRTVSLEKYKGKVSLVVNVASDSQLTDRNYLGLKELHKEFGPSHFSVLAFPSNQFGESEPRPSKEVESFARKNYGVTFPIFHKIKILGSEGEPAFRFLVDSSKKEPRWNFWKYLVNPEGQVVKFWKPEEPIEVIRPDIAALVRQVIIKKKEDL
binding [1]: no binding

B4: glutathione peroxidase 8 (GPx8), wild type, expressed in 293T cells (protein, UniProt Q8TED1 1-209)
chain: MEPLAAYPLKCSGPRAKVFAVLLSIVLCTVTLFLLQLKFLKPKINSFYAFEVKDAKGRTVSLEKYKGKVSLVVNVASDCQLTDRNYLGLKELHKEFGPSHFSVLAFPCNQFGESEPRPSKEVESFARKNYGVTFPIFHKIKILGSEGEPAFRFLVDSSKKEPRWNFWKYLVNPEGQVVKFWKPEEPIEVIRPDIAALVRQVIIKKKEDL
binding [2]: no binding (condition: reducing conditions (+ DTT))
binding [3]: binds
binding [4]: no binding
binding [5]: binds
binding [6]: binds
binding [7]: binds
binding [8]: binds

Next, values leading:

binding [1]: no binding
B1: recombinant GPx8 C79S mutant, N-terminally truncated (N' Δ1-43) (domain or fragment, UniProt Q8TED1 44-209)
chain: INSFYAFEVKDAKGRTVSLEKYKGKVSLVVNVASDSQLTDRNYLGLKELHKEFGPSHFSVLAFPCNQFGESEPRPSKEVESFARKNYGVTFPIFHKIKILGSEGEPAFRFLVDSSKKEPRWNFWKYLVNPEGQVVKFWKPEEPIEVIRPDIAALVRQVIIKKKEDL

binding [1]: no binding
B3: recombinant GPx8 C108S mutant, N-terminally truncated (N' Δ1-43) (domain or fragment, UniProt Q8TED1 44-209)
chain: INSFYAFEVKDAKGRTVSLEKYKGKVSLVVNVASDCQLTDRNYLGLKELHKEFGPSHFSVLAFPSNQFGESEPRPSKEVESFARKNYGVTFPIFHKIKILGSEGEPAFRFLVDSSKKEPRWNFWKYLVNPEGQVVKFWKPEEPIEVIRPDIAALVRQVIIKKKEDL

binding [9]: binds
B5: Myc-tagged GPx8 stably expressed in THP-1 cells (protein, UniProt Q8TED1 1-209)
chain: MEPLAAYPLKCSGPRAKVFAVLLSIVLCTVTLFLLQLKFLKPKINSFYAFEVKDAKGRTVSLEKYKGKVSLVVNVASDCQLTDRNYLGLKELHKEFGPSHFSVLAFPCNQFGESEPRPSKEVESFARKNYGVTFPIFHKIKILGSEGEPAFRFLVDSSKKEPRWNFWKYLVNPEGQVVKFWKPEEPIEVIRPDIAALVRQVIIKKKEDL
